Hit rate of the full screen: of about 39,000 compounds, about 220 (0.56%) showed activity. Some of the results follow.
The compounds below were run on Escherichia coli K-12 BW25113 (assay: relative growth (OD600 normalised to plate interquartile mean) (fraction); higher = less growth inhibition, active = 0.2 or less). Conditions: 50 µM; LB; incubation time: overnight (16-24 h).
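Further: static incubation at 37 °C against the wild-type strain, values averaged over two biological replicates.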

Structure (SMILES)	relative growth
C=CCN1[C@H](Cc2ccccc2)[C@@H](c2cn(CCCCNC(=O)C(=O)NC)nn2)Oc2ccccc2S1(=O)=O	inactive: 0.993
C[C@@H]1CN([C@H](C)CO)C(=O)c2cc(NC(=O)Nc3cccc4ccccc34)ccc2O[C@H]1CN(C)S(=O)(=O)c1cccs1	inactive: 1
Cc1ccc(S(=O)(=O)Nc2ccc3c(c2)C(=O)N([C@H](C)CO)C[C@@H](C)[C@H](CN(C)C(=O)NC2CCCCC2)OCCCC[C@@H](C)O3)cc1	inactive: 1.01
Cc1ccc(S(=O)(=O)N(C)C[C@H]2Oc3ccc(NS(=O)(=O)c4c(C)noc4C)cc3CC(=O)N([C@H](C)CO)C[C@H]2C)cc1	inactive: 1
COc1ccc(C#Cc2cnc3c(c2)C(=O)N([C@H](C)CO)C[C@H](C)[C@H](CN(C)CC2CCOCC2)O3)cc1	inactive: 1.03
COCC(=O)N[C@@H]1C=C[C@@H](CC(=O)N2CCCCC2)O[C@@H]1CO	inactive: 0.984
O=C1COC2(CCN(C(=O)C3CCOCC3)CC2)CN1	inactive: 0.983
C[C@H]1CN([C@@H](C)CO)C(=O)c2cc(NC(=O)C3CCCCC3)ccc2O[C@H]1CN(C)S(=O)(=O)c1cn(C)cn1	inactive: 0.968
C[C@@H]1CN([C@H](C)CO)C(=O)c2cc(NC(=O)CCCN(C)C)ccc2O[C@H]1CN(C)Cc1ccccc1	inactive: 1.03
C[C@H](CO)N1C[C@H](C)[C@H](CN(C)Cc2ccc(C(=O)Nc3ccccc3N)cc2)Oc2ccc(NC(=O)NC3CCCCC3)cc2CC1=O	inactive: 1
C[C@@H]1CN([C@@H](C)CO)C(=O)c2cc(NC(=O)NC3CCCCC3)ccc2O[C@@H](C)CCCCO[C@H]1CN(C)C(=O)Nc1cccc2ccccc12	inactive: 1.04
C[C@@H]1CN([C@H](C)CO)C(=O)Cc2cc(NC(=O)C3CC3)ccc2O[C@H]1CN(C)S(=O)(=O)c1cccs1	inactive: 0.986
CNCC(O)c1cccc(O)c1.Cl (configuration not stated)	inactive: 1.04
NC[C@H]1CN(Cc2ccc(F)cc2)CCO1	inactive: 0.99
C[C@@H]1CN([C@@H](C)CO)C(=O)CCCn2cc(nn2)CO[C@@H]1CN(C)C(=O)Nc1cccc(C(F)(F)F)c1	inactive: 0.967
COc1ccc(NC(=O)N(C)C[C@H]2OCCCC[C@@H](C)Oc3ccc(NC(=O)C4CCCCC4)cc3C(=O)N([C@@H](C)CO)C[C@@H]2C)cc1	inactive: 0.974
COC(=O)C[C@H]1NCCNC1=O	inactive: 0.914
COc1ccc2c3c([nH]c2c1)[C@H](CO)N(C[C@]13CN(C1)S(=O)(=O)c1cccs1)C(=O)c1ccccc1	inactive: 1.02
C[C@H]1CCCCO[C@H](CN(C)C)[C@@H](C)CN([C@@H](C)CO)C(=O)c2cc(NS(=O)(=O)c3cn(C)cn3)ccc2O1	inactive: 0.983
C[C@@H]1CN([C@H](C)CO)C(=O)c2cc(NC(=O)c3ccncc3)ccc2O[C@H]1CN(C)S(=O)(=O)c1ccccc1	inactive: 0.999
N[C@@H]1CC[C@@H](CCn2cc(-c3cccc(F)c3)nn2)O[C@H]1CO	inactive: 1.02

Structure (SMILES)	relative growth
CO[C@H]1CN(C)C(=O)c2cc(NS(C)(=O)=O)ccc2OC[C@H](C)N(C(=O)c2ccc3c(c2)OCO3)C[C@@H]1C	inactive: 1.04
Cc1ccc(S(=O)(=O)NCCC(=O)N2CCOCCOCCOCC2)cc1	inactive: 0.984
C[C@@](Cc1ccccc1)(NC(=O)CN)c1ccccc1	inactive: 0.988
C[C@H](CO)N1C[C@H](C)[C@H](CN(C)S(=O)(=O)c2ccc(Cl)cc2)Oc2c(NC(=O)Nc3cccc4ccccc34)cccc2C1=O	inactive: 1
O=C(C[C@@H]1CC[C@H]2[C@@H](COC[C@@H](O)CN2S(=O)(=O)c2ccccc2)O1)N1CCc2ccccc2C1	inactive: 0.955
CCC(=O)N[C@H]1CC[C@@H](CC(=O)OC)O[C@H]1CO	inactive: 1
C[C@H]1CCCCO[C@H](CN(C)C(=O)Nc2ccc(C(F)(F)F)cc2)[C@@H](C)CN([C@@H](C)CO)C(=O)c2cc(NC(=O)c3ccccc3)ccc2O1	inactive: 1.05
COc1cccc(S(=O)(=O)N2C[C@@H](O)COC[C@H]3O[C@H](CC(=O)NCCCN4CCOCC4)CC[C@@H]32)c1	inactive: 0.989
COc1ccc(NC(=O)Nc2ccc3c(c2)C(=O)N([C@@H](C)CO)C[C@@H](C)[C@@H](CN(C)S(=O)(=O)c2ccccc2)OCCCC[C@H](C)O3)cc1	inactive: 1.01
CCOC(=O)C1=C(C)NC(C)=C(C(=O)OC)C1c1cccc([N+](=O)[O-])c1 (configuration not stated)	inactive: 0.765
Cc1noc(C)c1S(=O)(=O)N(C)C[C@H]1Oc2ccc(NC(=O)C3CCCCC3)cc2CC(=O)N([C@H](C)CO)C[C@@H]1C	inactive: 1.02
Cc1ccc(S(=O)(=O)Nc2cccc3c2O[C@H](CN(C)S(=O)(=O)c2ccccc2)[C@H](C)CN([C@H](C)CO)C3=O)cc1	inactive: 0.997
C[C@@H]1CN([C@H](C)CO)S(=O)(=O)c2ccc(-c3ccc(C(=O)N(C)C)cc3)cc2O[C@@H]1CN(C)C(=O)C1CCOCC1	inactive: 1.02
O=C(CCCCCNC(=O)OCc1ccc(CO[C@@H]2C[C@H](c3ccccc3)C=C(C(=O)N3CCN(Cc4ccccc4)CC3)O2)cc1)NO	inactive: 1.03
CC(C)NC(=O)N(C)C[C@@H]1Oc2c(NC(=O)NC3CCCCC3)cccc2C(=O)N([C@H](C)CO)C[C@H]1C	inactive: 0.985
COc1ccc(S(=O)(=O)N(C)C[C@@H]2OCCCC[C@@H](C)Oc3ccc(NS(=O)(=O)c4ccc(Cl)cc4)cc3C(=O)N([C@@H](C)CO)C[C@H]2C)cc1	inactive: 1.03
C[C@H]1CN([C@@H](C)CO)C(=O)Cc2cc(NC(=O)Nc3ccccc3)ccc2O[C@@H]1CN(C)Cc1ccc(C(=O)Nc2ccccc2N)cc1	inactive: 0.994
O=C(C[C@@H]1C[C@@H]2c3cc(NS(=O)(=O)c4ccc(F)cc4)ccc3O[C@@H]2[C@H](CO)O1)NCc1ccccc1F	inactive: 0.989
COc1ccccc1CNC(=O)C[C@H]1C[C@@H]2c3cc(NS(=O)(=O)c4ccc(F)cc4)ccc3O[C@@H]2[C@@H](CO)O1	inactive: 0.998
COc1ccc(S(=O)(=O)Nc2ccc3c(c2)C(=O)N([C@@H](C)CO)C[C@H](C)[C@@H](CN(C)C(=O)NC2CCCCC2)OCCCC[C@@H](C)O3)cc1	inactive: 1.01
CCCCCCCCCCCCCCCCC(C(=O)O)C(O)(CC(=O)O)C(=O)O (configuration not stated)	inactive: 0.963

Structure (SMILES)	relative growth
C[C@H]1CN([C@@H](C)CO)C(=O)Cc2cc(NC(=O)C3CC3)ccc2O[C@@H]1CN(C)C(=O)NC1CCCCC1	inactive: 0.98
Cc1cc(C(=O)Nc2cccc3c2O[C@H](CN(C)Cc2ccccc2)[C@H](C)CN([C@@H](C)CO)C3=O)n(C)n1	inactive: 1.01
COc1ccc(COC[C@]23N=C4Sc5ccc([N+](=O)[O-])cc5C(=O)N4[C@H](c4ccccc4O2)[C@H]3CO[Si](C)(C)C(C)(C)C)cc1	inactive: 1.03
CCN(CC)CCCNC(=O)C1CCNCC1	inactive: 1.02
COc1ccc2c3c(n(c2c1)C)[C@@H](CO)N(C[C@]13CCN(CC1)C(=O)Nc1ccc(cc1)F)C(=O)c1ccc(cc1)F	inactive: 1.01
C[C@@H]1CN([C@H](C)CO)C(=O)c2cc(NC(=O)CCC(F)(F)F)ccc2O[C@@H](C)CCCCO[C@H]1CN(C)S(=O)(=O)c1ccc(Cl)cc1	inactive: 0.991
Cc1noc(C)c1NC(=O)Nc1ccc2c(c1)C(=O)N([C@@H](C)CO)C[C@@H](C)[C@H](CN(C)S(=O)(=O)c1cccs1)OCCCC[C@@H](C)O2	inactive: 0.994
C[C@H](CO)N1C[C@H](C)[C@H](CN(C)S(=O)(=O)c2cccs2)Oc2c(NS(=O)(=O)c3ccccc3)cccc2C1=O	inactive: 1.03
CN(CCN)c1ccccc1	inactive: 0.973
Cc1ccc(S(=O)(=O)N(C)C[C@H]2Oc3ncc(-c4ccncc4)cc3C(=O)N([C@@H](C)CO)C[C@@H]2C)cc1	inactive: 0.99
C[C@H](CO)N1C[C@H](C)[C@@H](CN(C)S(=O)(=O)c2ccc(F)cc2)OCCCC[C@H](C)Oc2ccc(NS(C)(=O)=O)cc2C1=O	inactive: 0.992
NC(=O)NC[C@H](N)C(=O)O	inactive: 0.982
COc1ccc(NC(=O)Nc2ccc3c(c2)C(=O)N([C@H](C)CO)C[C@@H](C)[C@H](CN(C)C(=O)Cc2ccccc2)OCCCC[C@@H](C)O3)cc1	inactive: 1
COc1ccc(S(=O)(=O)N[C@H]2CC[C@@H](CC(=O)N3CCC(Cc4ccccc4)CC3)O[C@H]2CO)cc1	inactive: 1.02
Cc1ccc(S(=O)(=O)NC2=NCN(CCN3CCOCC3)CN2)cc1	inactive: 0.997
C[C@@H]1CN([C@H](C)CO)C(=O)Cc2cc(NC(=O)c3ccncc3)ccc2O[C@@H]1CN(C)S(C)(=O)=O	inactive: 1.02
C[C@@H]1CN([C@@H](C)CO)C(=O)c2cc(NC(=O)Nc3ccc4c(c3)OCO4)ccc2O[C@@H]1CN(C)C(=O)Nc1ccc(C(F)(F)F)cc1	inactive: 0.994
CCC(=O)O[C@@H](OP(=O)(CCCCc1ccccc1)CC(=O)N1C[C@H](C2CCCCC2)C[C@H]1C(=O)O)C(C)C (some centres not stated)	inactive: 0.982
N[C@@H]1CC[C@H](CCn2cc(C3CC3)nn2)O[C@@H]1CO	inactive: 0.967
COc1ccc(S(=O)(=O)N(C)C[C@@H]2Oc3ccc(NS(=O)(=O)c4c(C)noc4C)cc3CC(=O)N([C@@H](C)CO)C[C@H]2C)cc1	inactive: 0.999
